Results on 20 sequences are retold here after the supplement of paper PMC10338343.

± gives the standard deviation. The list shows a part of the results, in another mix than the full data.

The test system of the test is MIWI (PIWIL1) piRISC loaded with L1MC piRNA (30 nt). Nature of the test: pre-steady-state target cleavage rate (min^-1); MIWI and MILI are mouse PIWI proteins and EfPiwi is from a freshwater sponge; tags in brackets are library labels; higher = faster piRNA-guided slicing of the target. The note with it: guide: L1MC piRNA 5'p-UAACUAAAUACUAUGCAAGCUGUAGGUCCU
In outline: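 Cleave-'n-Seq: a transcribed, DNA-blocked target RNA library (0.1 nM) was mixed with 1 nM active affinity-purified piRISC carrying one synthetic guide, with or without 500 nM GTSF1 partner protein, in HEPES–potassium acetate buffer at 33 °C for 0–8 or 0–960 min. Uncleaved targets were sequenced and normalised to depth and to weakly complementary targets. Three trials were pooled, and k3 was capped at 0.0001 min^-1. The pre-steady-state cleavage rate came from a burst-and-steady-state fit.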

The mark [1] stands for this setting: auxiliary factor: 500 nM mouse GTSF1.
Where [2] appears, read: auxiliary factor: none (no GTSF1).

In the case of UCCUGCUACAGCUUGCAUAGAAUUUAGUUA, the “pre-steady-state target cleavage rate” value reads like this: under setting [1], 0.427 ± 0.037; under setting [2], 0.0246 ± 0.0051.
As for UCCUGGAUGUGCUUGCUUAGUAUUUACUUA, the “pre-steady-state target cleavage rate” value is, setting by setting: under setting [1], 0.0606 ± 0.011; under setting [2], 0.0187 ± 0.0051.
As for UGGACCUACAGUUUGCAUAGUAUUUAGUUA, the “pre-steady-state target cleavage rate” value by setting is: under setting [1], 1.5 ± 0.088; under setting [2], 0.0675 ± 0.013.
The matching figures for AGGACCUAGUCCUUGCAUAGUAUUUAGUAA: 0.568 ± 0.069 and 0.0257 ± 0.0058.
In the same order, the values of “UCCUGGAACAGCUUGCAUAGUAUUUAGUUC [g2:g23:cont:t1C]” are 0.368 ± 0.052 and 0.025 ± 0.0055.
For AGGACCUACAGCUUGCAUAGUAUUCAGUUA, the “pre-steady-state target cleavage rate” value under setting [1] is 0.795 ± 0.066 and the “pre-steady-state target cleavage rate” value under setting [2] came to 0.0492 ± 0.0097.
For UCCUCCUACAUCUUGCAUAGUAUUUAGUUA, the “pre-steady-state target cleavage rate” value is, setting by setting: under setting [1], 1.17 ± 0.038; under setting [2], 0.0605 ± 0.01.
For the sequence UCGACCUACAGCAUGCAUAGUAUUUUGUUA, the “pre-steady-state target cleavage rate” value is, setting by setting: under setting [1], 0.818 ± 0.059; under setting [2], 0.017 ± 0.0042.
The matching figures for UGGACCUUGUGCUUGCAUAGUAUUUACAAA: 0.0152 ± 0.0046 and 0.00388 ± 0.0021.
With UCCUGCUACAGCUUGCAUAGUAUUUAGUCUA, the “pre-steady-state target cleavage rate” value under setting [1] was 0.156 ± 0.025 and the “pre-steady-state target cleavage rate” value under setting [2] was 0.00747 ± 0.0028.
The matching figures for UCCUGGAUCAGCUUGCAUCGUAUUUAGUUA: 0.327 ± 0.02 and 0.032 ± 0.0077.
In the same order, the values of UCCUGGAUGAGCAUGCAUACUAUUUAGUUA are 0.136 ± 0.019 and 0.00797 ± 0.0031.
In the same order, the values of UCCUGGAUGAGCAUGCUUAGUAUUUAGUUA are 0.0871 ± 0.0071 and 0.00385 ± 0.0019.
For the sequence UCGACCCACAGCUUGCAUAGUAUUUAGUUA, the “pre-steady-state target cleavage rate” value turned out to be 1.19 ± 0.044 under setting [1] and 0.0644 ± 0.011 under setting [2].
The matching figures for AGGACCUACAGCUUGCAUAGUAUUUAGUUUA: 1.27 ± 0.067 and 0.11 ± 0.019.
With UCGACCUACAGCUUGCAUAGAAUUUACUUA, the “pre-steady-state target cleavage rate” value under setting [1] was 0.348 ± 0.045 and the “pre-steady-state target cleavage rate” value under setting [2] stood at 0.0173 ± 0.0046.
In the same order, the values of UCCUCCUUGUGCUUGCAUAGUAUUUAGUUA are 0.62 ± 0.033 and 0.0361 ± 0.0082.
As for UGGACCUACAGCUGGCAUAGUAUUUAGUUA, the “pre-steady-state target cleavage rate” value is 1.04 ± 0.044 under setting [1] and 0.0463 ± 0.011 under setting [2].
In the same order, the values of UCCUCCUACAGCUUGCAUUGUAUUUAGAAA are 0.181 ± 0.027 and 0.00243 ± 0.0023.
In the same order, the values of UCCUCCUACAGCUUGCAUAGGAUUUAGUUA are 0.0453 ± 0.0078 and 0.00636 ± 0.0018.
